Source: article PMC5101352
Results are given in words; binding and its absence hold for the method and conditions named. Some results given as binding are weak or reduced against the parent protein; the word gives no strength. Where a sequence is shown, tags or fusion partners need not be part of it.

Biological target: YbeY (E. coli), bacterial two-hybrid fusion (E. coli) (UniProt P0A898)
Assay: two-hybrid; bacterial adenylate cyclase two-hybrid (BACTH) in E. coli BTH101; T25 and T18 fusions; spots or streaks on LB agar with X-Gal, IPTG and TPEG, 30°C, colour read after 2 or 3 days

Binder	binding
ATP-dependent RNA helicase RhlB, bacterial two-hybrid fusion (protein, UniProt P0A8J8 1-421) MSKTHLTEQKFSDFALHPKVVEALEKKGFHNCTPIQALALPLTLAGRDVAGQAQTGTGKTMAFLTSTFHYLLSHPAIADRKVNQPRALIMAPTRELAVQIHADAEPLAEATGLKLGLAYGGDGYDKQLKVLESGVDILIGTTGRLIDYAKQNHINLGAIQVVVLDEADRMYDLGFIKDIRWLFRRMPPANQRLNMLFSATLSYRVRELAFEQMNNAEYIEVEPEQKTGHRIKEELFYPSNEEKMRLLQTLIEEEWPDRAIIFANTKHRCEEIWGHLAADGHRVGLLTGDVAQKKRLRILDEFTRGDLDILVATDVAARGLHIPAVTHVFNYDLPDDCEDYVHRIGRTGRAGASGHSISLACEEYALNLPAIETYIGHSIPVSKYNPDALMTDLPKPLRLTRPRTGNGPRRTGAPRNRRRSG	no binding
GTP-binding protein BipA, bacterial two-hybrid fusion (protein, UniProt P0DTT0 1-607) MIEKLRNIAIIAHVDHGKTTLVDKLLQQSGTFDSRAETQERVMDSNDLEKERGITILAKNTAIKWNDYRINIVDTPGHADFGGEVERVMSMVDSVLLVVDAFDGPMPQTRFVTKKAFAYGLKPIVVINKVDRPGARPDWVVDQVFDLFVNLDATDEQLDFPIVYASALNGIAGLDHEDMAEDMTPLYQAIVDHVPAPDVDLDGPFQMQISQLDYNSYVGVIGIGRIKRGKVKPNQQVTIIDSEGKTRNAKVGKVLGHLGLERIETDLAEAGDIVAITGLGELNISDTVCDTQNVEALPALSVDEPTVSMFFCVNTSPFCGKEGKFVTSRQILDRLNKELVHNVALRVEETEDADAFRVSGRGELHLSVLIENMRREGFELAVSRPKVIFREIDGRKQEPYENVTLDVEEQHQGSVMQALGERKGDLKNMNPDGKGRVRLDYVIPSRGLIGFRSEFMTMTSGTGLLYSTFSHYDDVRPGEVGQRQNGVLISNGQGKAVAFALFGLQDRGKLFLGHGAEVYEGQIIGIHSRSNDLTVNCLTGKKLTNMRASGTDEAVVLVPPIRMTLEQALEFIDDDELVEVTPTSIRIRKRHLTENDRRRANRAPKDD	no binding
Nucleoside triphosphate pyrophosphohydrolase MazG, bacterial two-hybrid fusion (protein, UniProt P0AEY3 1-263) MNQIDRLLTIMQRLRDPENGCPWDKEQTFATIAPYTLEETYEVLDAIAREDFDDLRGELGDLLFQVVFYAQMAQEEGRFDFNDICAAISDKLERRHPHVFADSSAENSSEVLARWEQIKTEERAQKAQHSALDDIPRSLPALMRAQKIQKRCANVGFDWTTLGPVVDKVYEEIDEVMYEARQAVVDQAKLEEEMGDLLFATVNLARHLGTKAEIALQKANEKFERRFREVERIVAARGLEMTGVDLETMEEVWQQVKRQEIDL	no binding
PhoH-like protein YbeZ, bacterial two-hybrid fusion (protein, UniProt P0A9K3 1-346) MNIDTREITLEPADNARLLSLCGPFDDNIKQLERRLGIEINRRDNHFKLTGRPICVTAAADILRSLYVDTAPMRGQIQDIEPEQIHLAIKEARVLEQSAESVPEYGKAVNIKTKRGVIKPRTPNQAQYIANILDHDITFGVGPAGTGKTYLAVAAAVDALERQEIRRILLTRPAVEAGEKLGFLPGDLSQKVDPYLRPLYDALFEMLGFEKVEKLIERNVIEVAPLAYMRGRTLNDAFIILDESQNTTIEQMKMFLTRIGFNSKAVITGDVTQIDLPRNTKSGLRHAIEVLADVEEISFNFFHSEDVVRHPVVARIVNAYEAWEEAEQKRKAALAAERKREEQEQK	binds
Initiation factor 3 (IF3), bacterial two-hybrid fusion (protein, UniProt P0A707 1-180) MKGGKRVQTARPNRINGEIRAQEVRLTGLEGEQLGIVSLREALEKAEEAGVDLVEISPNAEPPVCRIMDYGKFLYEKSKSSKEQKKKQKVIQVKEIKFRPGTDEGDYQVKLRSLIRFLEEGDKAKITLRFRGREMAHQQIGMEVLNRVKDDLQELAVVESFPTKIEGRQMIMVLAPKKKQ	no binding
RNA polymerase-binding transcription factor DksA, bacterial two-hybrid fusion (protein, UniProt P0ABS1 1-151) MQEGQNRKTSSLSILAIAGVEPYQEKPGEEYMNEAQLAHFRRILEAWRNQLRDEVDRTVTHMQDEAANFPDPVDRAAQEEEFSLELRNRDRERKLIKKIEKTLKKVEDEDFGYCESCGVEIGIRRLEARPTADLCIDCKTLAEIREKQMAG	no binding
Polynucleotide phosphorylase (PNPase), bacterial two-hybrid fusion (protein, UniProt P05055 1-711) MLNPIVRKFQYGQHTVTLETGMMARQATAAVMVSMDDTAVFVTVVGQKKAKPGQDFFPLTVNYQERTYAAGRIPGSFFRREGRPSEGETLIARLIDRPIRPLFPEGFVNEVQVIATVVSVNPQVNPDIVAMIGASAALSLSGIPFNGPIGAARVGYINDQYVLNPTQDELKESKLDLVVAGTEAAVLMVESEAQLLSEDQMLGAVVFGHEQQQVVIQNINELVKEAGKPRWDWQPEPVNEALNARVAALAEARLSDAYRITDKQERYAQVDVIKSETIATLLAEDETLDENELGEILHAIEKNVVRSRVLAGEPRIDGREKDMIRGLDVRTGVLPRTHGSALFTRGETQALVTATLGTARDAQVLDELMGERTDTFLFHYNFPPYSVGETGMVGSPKRREIGHGRLAKRGVLAVMPDMDKFPYTVRVVSEITESNGSSSMASVCGASLALMDAGVPIKAAVAGIAMGLVKEGDNYVVLSDILGDEDHLGDMDFKVAGSRDGISALQMDIKIEGITKEIMQVALNQAKGARLHILGVMEQAINAPRGDISEFAPRIHTIKINPDKIKDVIGKGGSVIRALTEETGTTIEIEDDGTVKIAATDGEKAKHAIRRIEEITAEIEVGRVYTGKVTRIVDFGAFVAIGGGKEGLVHISQIADKRVEKVTDYLQMGQEVPVKVLEVDRQGRIRLSIKEATEQSQPAAAPEAPAAEQGE	no binding
GTPase Der, bacterial two-hybrid fusion (protein, UniProt P0A6P5 1-490) MVPVVALVGRPNVGKSTLFNRLTRTRDALVADFPGLTRDRKYGRAEIEGREFICIDTGGIDGTEDGVETRMAEQSLLAIEEADVVLFMVDARAGLMPADEAIAKHLRSREKPTFLVANKTDGLDPDQAVVDFYSLGLGEIYPIAASHGRGVLSLLEHVLLPWMEDLAPQEEVDEDAEYWAQFEAEENGEEEEEDDFDPQSLPIKLAIVGRPNVGKSTLTNRILGEERVVVYDMPGTTRDSIYIPMERDGREYVLIDTAGVRKRGKITDAVEKFSVIKTLQAIEDANVVMLVIDAREGISDQDLSLLGFILNSGRSLVIVVNKWDGLSQEVKEQVKETLDFRLGFIDFARVHFISALHGSGVGNLFESVREAYDSSTRRVGTSMLTRIMTMAVEDHQPPLVRGRRVKLKYAHAGGYNPPIVVIHGNQVKDLPDSYKRYLMNYFRKSLDVMGSPIRIQFKEGENPYANKRNTLTPTQMRKRKRLMKHIKKNK	binds

Second part, the binder after the results:

binding	Binder
no binding	RNase R, bacterial two-hybrid fusion (protein, UniProt P21499 1-813) MSQDPFQEREAEKYANPIPSREFILEHLTKREKPASRDELAVELHIEGEEQLEGLRRRLRAMERDGQLVFTRRQCYALPERLDLVKGTVIGHRDGYGFLRVEGRKDDLYLSSEQMKTCIHGDQVLAQPLGADRKGRREARIVRVLVPKTSQIVGRYFTEAGVGFVVPDDSRLSFDILIPPDQIMGARMGFVVVVELTQRPTRRTKAVGKIVEVLGDNMGTGMAVDIALRTHEIPYIWPQAVEQQVAGLKEEVPEEAKAGRVDLRDLPLVTIDGEDARDFDDAVYCEKKRGGGWRLWVAIADVSYYVRPSTPLDREARNRGTSVYFPSQVIPMLPEVLSNGLCSLNPQVDRLCMVCEMTVSSKGRLTGYKFYEAVMSSHARLTYTKVWHILQGDQDLREQYAPLVKHLEELHNLYKVLDKAREERGGISFESEEAKFIFNAERRIERIEQTQRNDAHKLIEECMILANISAARFVEKAKEPALFRIHDKPSTEAITSFRSVLAELGLELPGGNKPEPRDYAELLESVADRPDAEMLQTMLLRSMKQAIYDPENRGHFGLALQSYAHFTSPIRRYPDLTLHRAIKYLLAKEQGHQGNTTETGGYHYSMEEMLQLGQHCSMAERRADEATRDVADWLKCDFMLDQVGNVFKGVISSVTGFGFFVRLDDLFIDGLVHVSSLDNDYYRFDQVGQRLMGESSGQTYRLGDRVEVRVEAVNMDERKIDFSLISSERAPRNVGKTAREKAKKGDAGKKGGKRRQVGKKVNFEPDSAFRGEKKTKPKAAKKDARKAKKPSAKTQKIAAATKAKRAAKKKVAE
no binding	Ribosome maturation factor RimM, bacterial two-hybrid fusion (protein, UniProt P0A7X6 1-182) MSKQLTAQAPVDPIVLGKMGSSYGIRGWLRVFSSTEDAESIFDYQPWFIQKAGQWQQVQLESWKHHNQDMIIKLKGVDDRDAANLLTNCEIVVDSSQLPQLEEGDYYWKDLMGCQVVTTEGYDLGKVVDMMETGSNDVLVIKANLKDAFGIKERLVPFLDGQVIKKVDLTTRSIEVDWDPGF
no binding	Ribosome-binding factor A RbfA, bacterial two-hybrid fusion (protein, UniProt P0A7G2 1-133) MAKEFGRPQRVAQEMQKEIALILQREIKDPRLGMMTTVSGVEMSRDLAYAKVYVTFLNDKDEDAVKAGIKALQEASGFIRSLLGKAMRLRIVPELTFFYDNSLVEGMRMSNLVTSVVKHDEERRVNPDDSKED
no binding	rRNA small-subunit methyltransferase A KsgA, bacterial two-hybrid fusion (protein, UniProt P06992 1-273) MNNRVHQGHLARKRFGQNFLNDQFVIDSIVSAINPQKGQAMVEIGPGLAALTEPVGERLDQLTVIELDRDLAARLQTHPFLGPKLTIYQQDAMTFNFGELAEKMGQPLRVFGNLPYNISTPLMFHLFSYTDAIADMHFMLQKEVVNRLVAGPNSKAYGRLSVMAQYYCNVIPVLEVPPSAFTPPPKVDSAVVRLVPHATMPHPVKDVRVLSRITTEAFNQRRKTIRNSLGNLFSVEVLTGMGIDPAMRAENISVAQYCQMANYLAENAPLQES
